# Data as given in ChEMBL document CHEMBL1157539, “Thousands of chemical starting points for antimalarial lead identification” (Nature, 2010).
# “And” between values parts separate entries of the source, which are not always exact repeats. Equal entries are not always repeated. Whole data set: some 13,000 compounds, median “IFI” near 4, cut for the highest 2% near 17. The list shows a part of the results.
# Experiment: GSK_TCMDC: Inhibition Frequency Index (IFI). The number of non-kinase HTS assays where a compound showed > 50 % inhibition, expressed as a percentage of the number of such assays in which the compound was tested (-0 is zero)
# Type: functional
row,Compound,IFI
1,CCCOc1ccc2ccccc2c1CNCCCCCCNCc1c(OCCC)ccc2ccccc12,17.6%
2,Fc1ccc(-c2csc3ncnc(Cl)c23)cc1,2.16%
3,CCc1nc(N)nc(N)c1-c1ccc(Cl)cc1,1.59% and 3.57%
4,CCOC(=O)c1ccc(NC(=O)Nc2ccc(-c3cccc(-c4nc5cc(F)ccc5[nH]4)c3)cc2)cc1,4.95%
5,O=C(c1ccc(Cl)cc1)N1CCOC(CCN2CCC(c3ccccc3)CC2)(c2ccc(Cl)c(Cl)c2)C1 (stereo not drawn),8.84%
6,CCOP(=O)(OCC)c1ccc(OC)c(-c2ccc[nH]2)c1,2.16%
7,COc1ccc(CCNc2nc(NCc3ccccc3)c3cc(OC)c(OC)cc3n2)cc1OC,5.84%
8,CCOC(=O)N1NC(=O)N(c2ccccc2)C1(c1ccccc1)c1ccccc1,0%
9,CN(C)CCNC(=O)[C@H](CC1CCCCC1)NC(=O)c1ccc(O)c(-c2ccc(Cl)c(Cl)c2)c1,8.57%
10,CCNc1cc(C(=O)N[C@@H](Cc2ccccc2)[C@H](O)CNCc2ccc3c(c2)OCCO3)cc(N2CCCCS2(=O)=O)c1,3.57%
11,Fc1cccc(COc2ccc(Nc3ncnc4ccc(C#C[C@H]5CCCN5)cc34)cc2Cl)c1,5.07%
12,c1cncc(CCNCc2ccc(-c3ccc(-c4nc5ccccc5[nH]4)s3)cc2)c1,6.9%
13,O=C(Nc1cccc(CN2CCCN(Cc3ccc4c(c3)OCO4)CC2)c1)c1ccc(-c2ccccc2)cc1,10.6%
14,COc1ccccc1C1CCN(C2CCC(NC(=O)/C=C/c3ccc4c(c3)OC(F)(F)O4)CC2)CC1 (stereo not drawn),9.84%
15,COc1cc2nc(-c3ccccc3)nc(N3CCN(C(=O)c4ccco4)CC3)c2cc1OC,-0%
16,CN1CCC(c2c[nH]c3ccc(NC(=O)Nc4ccc(-c5ccncc5)cc4Cl)cc23)CC1,2.88%
17,c1cc(CNCCN2CCNCC2)cc(-c2cccc(-c3nc4ccccc4[nH]3)c2)c1,3%
18,N#Cc1ccc(N(CCOc2ccc(Cl)c(F)c2)Cc2ccccc2C(F)(F)F)cc1C(F)(F)F,0%
19,CCN(CCCN1CCCCC1)c1cc(C)nc(Nc2ccc(OC)cc2)n1,1.28%
20,COc1ccccc1CCNc1nccc(N[C@@H](Cc2ccccc2)C(=O)NCc2cccs2)n1,4.55%

row,Compound,IFI
1,NC1=NC(c2ccccc2)(c2ccccc2)C(=O)N1CC1CCC1,1.98%
2,COc1ccccc1-c1csc(C(=O)NCC2CCN(Cc3ccc(C(C)C)cc3)C2)c1 (stereo not drawn),9.8%
3,CC(C)NCc1ccc(-c2cccc(NC(=O)c3ccc(Cl)cc3)c2)cc1,6.8%
4,CC(C)N1CCN(C(CN2CCN(CCCOc3ccc(-c4ccccc4)cc3)CC2)c2ccc(F)cc2)CC1 (stereo not drawn),20.3%
5,NCC1CCCN1Cc1ccc(-c2ccc(-c3nc4cc(F)ccc4[nH]3)cc2)cc1 (stereo not drawn),9.9%
6,Cc1cc(Cl)ccc1NC(=O)NCCCCCN1CCC(c2c[nH]c3ccccc23)CC1,8.15%
7,Cc1cc(N[C@@H](Cc2ccccc2)C(=O)Nc2ccccc2)nc(NCCN2CCCC2)n1,0%
8,CCCNCc1ccc(-c2ccc(CN(CCOC)C(=O)c3cscn3)cc2)nc1,1.4%
9,Nc1nccc2ccc(-c3ccncc3)cc12,3%
10,FC(F)(F)c1ccc2[nH]ccc(=NN=Cc3ccccc3)c2c1,-0%
11,COc1ccc(NC(=O)CSc2nc(-c3ccccc3Cl)ns2)cc1,3.15%
12,CC(=O)Oc1c(C2CCN(CCCCNC(=O)c3ccc(-c4ccc(C#N)cc4)cc3)CC2)ccc2c1CCCC2,5.17%
13,O=C(CN1CCN(C(=O)c2ccco2)CC1)Nc1ccc(Br)cc1Cl,-0%
14,COc1ccc2cc(C(=O)NC3CCC(CCN4CCc5cc(C#N)ccc5C4)CC3)[nH]c2c1 (stereo not drawn),1.5%
15,CC(=O)N1N=C(c2ccc(Cl)cc2)Sc2c1nc(-c1ccccc1)n2C(C)=O,-0%
16,CN1CCN(CCCN(Cc2csc(-c3ccc(CNCc4ccccc4)cc3)n2)S(=O)(=O)c2ccccc2Cl)CC1,5.63%
17,COc1ccccc1C1CCN(C2CCC(NC(=O)/C=C/c3cc(F)cc(F)c3)CC2)CC1 (stereo not drawn),8.33%
18,O=C(Nc1cccc(-c2cccc(-c3nc4cc(C(F)(F)F)ccc4[nH]3)c2)c1)c1c[nH]cn1,4.67%
19,CC(=O)c1c(C)[nH]c(C(=O)Nc2ccc(-c3nc4ccc(C)cc4s3)cc2)c1C,1.71%
20,COc1ccc(CCNc2nc(N)c3cc(OC)c(OC)cc3n2)cc1,1.53%

row,Compound,IFI
1,COc1cccc2cc(C(=O)N[C@@H](CC(C)C)C(=O)N[C@H](/C=N/NC(=O)c3ccccc3)Cc3c[nH]cn3)oc12,2.75%
2,CC(=O)Nc1ccc(CN(Cc2ccc(OC(C)(C)C)cc2)Cc2ccc3c(c2)OCCO3)cc1,3.09%
3,Cc1cc(Nc2ncc(C#N)c(Nc3ccccc3C(N)=O)n2)ccc1N1CCN(C)CC1,11.5%
4,COc1c(C2CCN(CCCCNC(=O)c3cc(-c4ccc(C#N)cc4)n[nH]3)CC2)ccc2c1CCCC2,2.65%
5,NC1CCN(Cc2cccc(-c3ccc(-c4nc5ccccc5[nH]4)s3)c2)C1 (stereo not drawn),2.9%
6,N#Cc1cc(C(=O)Nc2ccccc2)c(N)nc1SCC(=O)NC(c1ccccc1)c1cccs1 (stereo not drawn),6.12%
7,O=C(Nc1ccc(-c2nc3ccccc3[nH]2)cc1)c1ccc(N2CCCC2)c([N+](=O)[O-])c1,0.99%
8,COc1ccc2nccc(C(=O)NC3CCC(CCN4CCc5cc(C#N)ccc5C4)CC3)c2c1 (stereo not drawn),0.72%
9,Cc1cc(N)c2cc(NC(=O)c3cc4ccccc4s3)ccc2n1,6.12%
10,Cc1cccc(NC(=O)NCc2ccccc2)n1,0.78%
11,CC1CN(Cc2ccccc2)CCN1c1ccc(NC(=O)c2cccs2)cc1 (stereo not drawn),2.78%
12,O=S(=O)(NCCN1CCCC1)c1ccc(-c2ccc(CNC3Cc4ccccc4C3)cc2)s1,10.7%
13,CCN1CCN(CCCNc2c3ccc(Cl)cc3nc3ccc(OC)cc23)CC1,4.23%
14,Cc1cccc2nc(-c3ccc(-c4ccc(NC(=O)CN5CCN(C)CC5)cc4)cc3)[nH]c12,5.22%
15,CC(=O)c1c[nH]c2ccc(/C=C/C(=O)NC3CCC(CCN4CCc5ccc(C#N)cc5CC4)CC3)cc12 (stereo not drawn),3.6%
16,Cc1cc(N[C@@H](Cc2ccccc2)C(=O)NCc2cccs2)nc(NCCc2ccccn2)n1,2.27%
17,Cc1c(F)cc(C(=O)NC2CC2)cc1-c1ccc2c(cnn2S(=O)(=O)c2cccs2)c1,0%
18,COc1ccc(Br)cc1/C=C/C(=O)Nc1cccc(C2CCN(C)CC2)c1,7.02%
